Experimental findings from the GPR68 mutational scans of Howard et al. (2025) are described below.

To fix the notation:
B1: GPR68, Q15743 (parent)
chain: MGNITADNSSMSCTIDHTIHQTLAPVVYVTVLVVGFPANCLSLYFGYLQIKARNELGVYLCNLTVADLFYICSLPFWLQYVLQHDNWSHGDLSCQVCGILLYENIYISVGFLCCISVDRYLAVAHPFRFHQFRTLKAAVGVSVVIWAKELLTSIYFLMHEEVIEDENQHRVCFEHYPIQAWQRAINYYRFLVGFLFPICLLLASYQGILRAVRRSHGTQKSRKDQIQRLVLSTVVIFLACFLPYHVLLLVRSVWEASCDFAKGVFNAYHFSLLLTSFNCVADPVLYCFVSETTHRDLARLRGACLAFLTCSRTGRAREAYPLGAPEASGKSGAQGEEPELLTKLHPAFQTPNSPGSGGFPTGRLA

Scores whose standard error is large were omitted. Two further conditions of the source, in which the scores hardly spread, are not listed. In variant names, del marks residues removed and ins residues inserted between the two positions. For part of these data: The concentration of ogerin is not given here.

Data set [1] covers variants of B1. Description: cAMP reporter score (Enrich2 score, wild type = 0); higher = more signal; HEK293T, FACS bins.
Data set [2] covers variants of B1. Description: surface expression score (Enrich2 score, wild type = 0); higher = more signal; HEK293T, FACS bins.

For Y176_P177del, the cAMP reporter score in data set [1] (pH 5.5) is -1.07; in data set [1] (pH 6), 0.174; in data set [1] (pH 6, modulator: ogerin) it was -1.59. For the same variant, in data set [2], the surface expression score is -2.58.

As for F194_L195insGS, the cAMP reporter score was -2.11 in data set [1] (pH 5.5); -0.034 in data set [1] (pH 6); -0.722 in data set [1] (pH 6, modulator: ogerin); -0.936 in data set [1] (pH 6.5, modulator: ogerin). Further, the surface expression score in data set [2] was -3.06.

In the case of A180_W181del, the cAMP reporter score in data set [1] (pH 5.5) is 0.117; in data set [1] (pH 6), -0.941; in data set [1] (pH 6, modulator: ogerin), -0.966; in data set [1] (pH 6.5, modulator: ogerin), -0.449. Besides, the surface expression score in data set [2] is -1.18.

On to R189_L191del, for which the cAMP reporter score in data set [1] (pH 5.5) is -0.931; in data set [1] (pH 6) it was -1.92; in data set [1] (pH 6, modulator: ogerin) it was -1.75; in data set [1] (pH 6.5, modulator: ogerin), -1.31. The surface expression score in data set [2] is -1.99.

In the case of I154A, the cAMP reporter score is -0.214 in data set [1] (pH 5.5); -0.586 in data set [1] (pH 6); -1.03 in data set [1] (pH 6, modulator: ogerin); -1.2 in data set [1] (pH 6.5, modulator: ogerin). In addition, the surface expression score in data set [2] was -0.494.

On to I154W, for which the cAMP reporter score was 0.392 in data set [1] (pH 5.5); 0.568 in data set [1] (pH 6); 0.095 in data set [1] (pH 6, modulator: ogerin); -0.834 in data set [1] (pH 6.5, modulator: ogerin). Further, in data set [2], the surface expression score turned out to be 0.51.

Consider I154V, for which the cAMP reporter score in data set [1] (pH 5.5) is -0.206; in data set [1] (pH 6, modulator: ogerin), 1.64.

I154H: the cAMP reporter score in data set [1] (pH 5.5) was -0.799; in data set [1] (pH 6, modulator: ogerin) it was -1.04; in data set [1] (pH 6.5, modulator: ogerin), -0.687. Also, in data set [2], the surface expression score was -1.6.

Turning to I154T, the cAMP reporter score in data set [1] (pH 5.5) was -0.536; in data set [1] (pH 6), -0.926; in data set [1] (pH 6, modulator: ogerin), -0.197; in data set [1] (pH 6.5, modulator: ogerin), -0.647. For the same variant, the surface expression score in data set [2] was -0.698.

Consider I154C, for which the cAMP reporter score in data set [1] (pH 5.5) is 0.613; in data set [1] (pH 6), -1.21; in data set [1] (pH 6, modulator: ogerin), -0.289; in data set [1] (pH 6.5, modulator: ogerin), -0.881. In addition, in data set [2], the surface expression score is -1.35.

On to I154K, for which the cAMP reporter score is -1.56 in data set [1] (pH 5.5) and -1.73 in data set [1] (pH 6.5, modulator: ogerin). In data set [2], the surface expression score was -2.46.

In the case of I154S, the cAMP reporter score in data set [1] (pH 5.5) was 0.7; in data set [1] (pH 6), -0.509; in data set [1] (pH 6, modulator: ogerin), -1.13; in data set [1] (pH 6.5, modulator: ogerin) it was -0.426.

Consider I154F, for which the cAMP reporter score in data set [1] (pH 5.5) was 0.322; in data set [1] (pH 6, modulator: ogerin), -0.02; in data set [1] (pH 6.5, modulator: ogerin), -0.525.

Take I154G: the cAMP reporter score in data set [1] (pH 5.5) is 0.417; in data set [1] (pH 6), -0.739; in data set [1] (pH 6, modulator: ogerin) it was -0.225; in data set [1] (pH 6.5, modulator: ogerin), -1.65. Moreover, the surface expression score in data set [2] is -0.72.

On to I154P, for which the cAMP reporter score in data set [1] (pH 5.5) was -0.698; in data set [1] (pH 6, modulator: ogerin), -0.732; in data set [1] (pH 6.5, modulator: ogerin) it was -0.442.

Turning to I154Q, the cAMP reporter score in data set [1] (pH 5.5) is -0.849; in data set [1] (pH 6) it was -1.02; in data set [1] (pH 6, modulator: ogerin), -0.653; in data set [1] (pH 6.5, modulator: ogerin) it was -1.25. In addition, in data set [2], the surface expression score is -1.78.

As for I154N, the cAMP reporter score is -0.289 in data set [1] (pH 5.5); -0.685 in data set [1] (pH 6); -0.065 in data set [1] (pH 6, modulator: ogerin); -1.42 in data set [1] (pH 6.5, modulator: ogerin). The surface expression score in data set [2] is -2.25.

As to I154R, the cAMP reporter score was -1.5 in data set [1] (pH 5.5); -0.484 in data set [1] (pH 6); -1.13 in data set [1] (pH 6, modulator: ogerin); -1.37 in data set [1] (pH 6.5, modulator: ogerin).

As to I154L, the cAMP reporter score in data set [1] (pH 5.5) was found to be 0.386; in data set [1] (pH 6, modulator: ogerin) it was 0.736; in data set [1] (pH 6.5, modulator: ogerin), 0.034. In data set [2], the surface expression score is 0.843.

As for I154M, the cAMP reporter score was 0.517 in data set [1] (pH 5.5); -0.579 in data set [1] (pH 6); 0.069 in data set [1] (pH 6, modulator: ogerin); -0.56 in data set [1] (pH 6.5, modulator: ogerin). Moreover, the surface expression score in data set [2] is -0.188.

In the case of I154E, the cAMP reporter score in data set [1] (pH 5.5) was -1.22; in data set [1] (pH 6), -1.36; in data set [1] (pH 6, modulator: ogerin), -0.884; in data set [1] (pH 6.5, modulator: ogerin) it was -1.31. Moreover, in data set [2], the surface expression score is -1.92.

G193_F194del: the cAMP reporter score in data set [1] (pH 5.5) is -1.48; in data set [1] (pH 6), -0.968; in data set [1] (pH 6, modulator: ogerin), -1.22; in data set [1] (pH 6.5, modulator: ogerin), -1.09. Besides, the surface expression score in data set [2] was -2.28.

For the variant T152C, the cAMP reporter score in data set [1] (pH 5.5) was -0.486; in data set [1] (pH 6), -1.11; in data set [1] (pH 6, modulator: ogerin) it was -1.3; in data set [1] (pH 6.5, modulator: ogerin), -1.37. Further, in data set [2], the surface expression score was 0.175.

For the variant T152M, the cAMP reporter score in data set [1] (pH 5.5) is 0.911; in data set [1] (pH 6), 0.665; in data set [1] (pH 6, modulator: ogerin), -0.103; in data set [1] (pH 6.5, modulator: ogerin) it was -0.671. Further, the surface expression score in data set [2] was determined as 1.72.

Turning to T152L, the cAMP reporter score was 0.431 in data set [1] (pH 5.5); -0.236 in data set [1] (pH 6, modulator: ogerin); -0.425 in data set [1] (pH 6.5, modulator: ogerin). Moreover, the surface expression score in data set [2] came to 1.11.

Regarding T152A, the cAMP reporter score in data set [1] (pH 5.5) is 0.172; in data set [1] (pH 6), -0.135; in data set [1] (pH 6, modulator: ogerin) it was -0.892; in data set [1] (pH 6.5, modulator: ogerin), -0.495. The surface expression score in data set [2] was 0.007.

As to T152I, the cAMP reporter score in data set [1] (pH 5.5) was -0.457; in data set [1] (pH 6), 0.439; in data set [1] (pH 6, modulator: ogerin), -0.722; in data set [1] (pH 6.5, modulator: ogerin), -0.955. In addition, the surface expression score in data set [2] came to 0.009.

As to T152R, the cAMP reporter score in data set [1] (pH 5.5) is -1.72; in data set [1] (pH 6) it was 0.626; in data set [1] (pH 6.5, modulator: ogerin), -1.03. Moreover, the surface expression score in data set [2] is -1.89.

Consider T152H, for which the cAMP reporter score is 0.204 in data set [1] (pH 5.5); 0.079 in data set [1] (pH 6, modulator: ogerin); -1.37 in data set [1] (pH 6.5, modulator: ogerin). The surface expression score in data set [2] was -0.532.

Regarding T152F, the cAMP reporter score in data set [1] (pH 5.5) was 0.642; in data set [1] (pH 6), -1.23; in data set [1] (pH 6, modulator: ogerin) it was -0.132; in data set [1] (pH 6.5, modulator: ogerin) it was -0.471. The surface expression score in data set [2] came out at 1.29.

Take T152E: the cAMP reporter score in data set [1] (pH 5.5) was -1.02; in data set [1] (pH 6), -1.04; in data set [1] (pH 6, modulator: ogerin) it was -1.56; in data set [1] (pH 6.5, modulator: ogerin), -1.96. Further, the surface expression score in data set [2] is -1.48.

As to T152W, the cAMP reporter score in data set [1] (pH 5.5) was -0.792; in data set [1] (pH 6), -0.757; in data set [1] (pH 6, modulator: ogerin), -2.04; in data set [1] (pH 6.5, modulator: ogerin), -1.25. The surface expression score in data set [2] amounted to 1.29.

Take T152S: the cAMP reporter score in data set [1] (pH 5.5) was 0.436; in data set [1] (pH 6) it was 0.947; in data set [1] (pH 6, modulator: ogerin), -0.246; in data set [1] (pH 6.5, modulator: ogerin) it was -0.42.
